In article PMC6664820, “Novel natural and synthetic inhibitors of solute carriers SGLT1 and SGLT2” (Pharmacology Research & Perspectives, 2019):
Structures can show the parent of a compound that is named as a salt.

Tests used:
[1] = target: T1, SGLT1 (Homo sapiens, UniProt P13866); experiment: SGLT1 inhibition assay for validation of screening hits and similar compounds (1‐NBD‐glucose uptake, CHO‐hSGLT1 cells); assay type: cell-based; set-up: activity: dose or concentration left out as unconfirmed
T1 sequence (P13866 1-664): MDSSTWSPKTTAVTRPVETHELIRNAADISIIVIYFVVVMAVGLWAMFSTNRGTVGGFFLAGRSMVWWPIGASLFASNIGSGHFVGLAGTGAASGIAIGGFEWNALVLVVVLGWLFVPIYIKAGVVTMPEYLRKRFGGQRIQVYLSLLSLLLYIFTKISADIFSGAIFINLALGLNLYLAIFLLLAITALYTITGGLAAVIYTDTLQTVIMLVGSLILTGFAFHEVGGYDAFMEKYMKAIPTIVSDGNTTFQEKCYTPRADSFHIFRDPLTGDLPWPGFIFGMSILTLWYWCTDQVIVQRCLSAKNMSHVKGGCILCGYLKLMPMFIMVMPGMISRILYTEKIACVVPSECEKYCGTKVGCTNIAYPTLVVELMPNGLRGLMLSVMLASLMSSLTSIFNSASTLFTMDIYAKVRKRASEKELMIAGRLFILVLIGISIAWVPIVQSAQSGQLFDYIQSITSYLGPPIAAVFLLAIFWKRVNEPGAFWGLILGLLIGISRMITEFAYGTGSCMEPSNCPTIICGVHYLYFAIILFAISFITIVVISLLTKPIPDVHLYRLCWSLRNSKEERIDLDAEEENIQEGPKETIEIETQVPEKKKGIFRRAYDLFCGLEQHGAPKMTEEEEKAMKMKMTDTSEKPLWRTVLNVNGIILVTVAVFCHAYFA

[2] = system: transporters; set-up: method as in earlier work; conditions: known transporter targets, per category of inhibited transporters; cited from earlier work
[3] = target: T2, hSGLT2 (Homo sapiens, UniProt P31639); experiment: SGLT2 inhibition assay for validation of screening hits and similar compounds (1‐NBD‐glucose uptake, CHO‐hSGLT2 cells); assay type: cell-based; conditions: 0.5 h, read-out: NORMALIZED SGLT2 ACTIVITY (%)
T2 sequence (P31639 1-672): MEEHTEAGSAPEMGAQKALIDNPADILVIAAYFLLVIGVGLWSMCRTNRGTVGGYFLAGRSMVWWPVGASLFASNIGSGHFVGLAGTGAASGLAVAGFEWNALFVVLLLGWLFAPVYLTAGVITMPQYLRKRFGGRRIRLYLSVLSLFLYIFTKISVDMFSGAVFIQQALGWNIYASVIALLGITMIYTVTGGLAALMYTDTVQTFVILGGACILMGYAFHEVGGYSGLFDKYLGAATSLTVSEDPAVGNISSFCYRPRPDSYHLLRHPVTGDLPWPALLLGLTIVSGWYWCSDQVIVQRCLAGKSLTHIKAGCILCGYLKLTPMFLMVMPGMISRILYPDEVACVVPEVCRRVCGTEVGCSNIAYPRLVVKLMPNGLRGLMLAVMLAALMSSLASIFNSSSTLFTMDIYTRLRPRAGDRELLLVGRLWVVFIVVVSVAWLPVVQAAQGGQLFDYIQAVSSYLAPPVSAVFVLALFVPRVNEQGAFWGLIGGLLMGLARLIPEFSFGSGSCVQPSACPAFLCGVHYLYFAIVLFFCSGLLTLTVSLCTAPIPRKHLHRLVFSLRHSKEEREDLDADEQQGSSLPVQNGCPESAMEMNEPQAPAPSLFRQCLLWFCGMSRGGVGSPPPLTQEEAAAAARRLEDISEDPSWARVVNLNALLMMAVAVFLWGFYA

[4] = 0.5 h, read-out: NORMALIZED SGLT1 ACTIVITY (%)

Compound Cc1ccccc1C(OCCN(C)C)c1ccccc1 (stereo not shown) [Orphenadrine HCl] has an activity ([1]; read-out: NORMALIZED SGLT1 ACTIVITY (%) Mean) of 90%.

With CN1CCC[C@@H]1CCO[C@](C)(c1ccccc1)c1ccc(Cl)cc1 [clemastine, reference compound] the “SGLT1/2 inhibition stated in words” value [1] was “showed SGLT1/2 inhibition”.

In the case of Cc1ccccc1C(OCCN(C)C)c1ccccc1 (stereo not shown) [orphenadrine, reference compound], the “INHIBITED TRANSPORTERS” value [2] is listed as “SLC6A2, SLC6A3, SCN10A” and the “SGLT1/2 inhibition stated in words” value [1] is listed as “novel SGLT1/2 inhibitors”.

With CN(C)CCN(Cc1cccs1)c1ccccn1 [Methapyrilene HCl] the remaining activity at 5 µM [3] was 96% and the remaining activity at 50 µM [3] was 68%.

Work on CN1CCC[C@@H]1CCO[C@](C)(c1ccccc1)c1ccc(Cl)cc1 [Clemastine fumarate] yielded a remaining activity at 5 µM [3] of 91%, a remaining activity at 50 µM [3] of 51% and a remaining activity at 5 µM [1, 4] of 94%. For the same compound, the remaining activity at 50 µM [1, 4] was 59%.
